Source: PubChem BioAssay (NCI)
The source holds several records for some structures; these can differ, active in one and inactive in another.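 Values shown are percent growth following 48 h exposure of cells in 96-well plates to a single concentration of compound; below 10 was considered active.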 The source holds more than one record for some entries. This is not the full list of results. There may be further records. The screen tested this drug many times, at the concentration stated with the values; each value is one run. Marks such as (2×) stand for listed records that agree.

System: HL-60(TB) leukemia
Assay: NCI-60 one-dose screen, 48 h (100 = growth as untreated, 0 = no growth, -100 = all killed)

Q: `COc1cccc2c1C(=O)c1c(O)c3c(c(O)c1C2=O)C[C@@](O)(C(=O)CO)C[C@@H]3OC1CC(N)C(O)C(C)O1` (some centres undefined) was tested. Which growth (0.25 µM, runs of 2019) did it give?
A: Its growth is “inactive: 57.3, 47.8, 24.1, 23.1, 23.4, 29.6, 28.6, 25.8 (2×), 21.4 (2×), 28.2, 22.9, 30.1 (2×), 32, 40.2, 37.9, 41.2, 38.1, 36.3 (2×), 34.5, 36.4, 38.8, 39.1, 39.4, 48.5, 58.4, 13.8, 45, 29.8, 29, 33.2, 27.9, 27.3, 31.8, 26, 29.5, 30.2, 18.7, 61.2, 25.3, 18.8, 36.5%”.

Q: What about the growth (0.25 µM, runs of 2020) of the same compound?
A: The growth was “inactive: 16.4, 18, 22.5, 20.8, 17.7, 25.8, 24.2, 23.9 (2×), 23.8, 29.4, 16, 25.3, 19.3, 39, 29.8, 19.7, 36.6, 25.9, 35.9, 34.8, 27.7, 16.9, 27, 38.3%”.

Q: What about the growth (0.25 µM, runs of 2021) of the same compound?
A: Its growth is “inactive: 14.1, 21.7, 27.6, 30.6, 32, 24.8, 23, 36.2, 32.4, 26.6, 27.8, 14.9, 15, 23.3 (2×), 25.5, 21.8, 16.4, 17.1, 18.1, 28.5, 17, 19.3, 21.9, 22.9, 33.9, 18.3, 24.5, 17.9, 21.5, 22.5, 13.8, 19.8, 12.9, 18.9, 19.9, 13.7, 13.3, 13.6, 16.7, 10.9, 11.6, 23.4, 20, 24.9, 17.3, 17.4, 27.4% and active: 8.27%, -1.25%”.

Q: And the growth (0.25 µM, runs of 2022)?
A: Its growth is “inactive: 44.9, 57.2, 11.6, 35.9, 44.3, 53.9 (2×), 70.4, 48.4, 46.6, 61.3, 60.1, 32.3, 38.5, 46.2, 70.5, 19.3, 18, 23.1, 10.9% and active: 8.53, 3.92, 4.02, 3.73, 9.88%”.

Q: And the growth (25 µM, runs of 1991)?
A: The growth was “active: -50.4, -40.6, -33, -58.6, -50.7, -42.5, -69.3, -69.1, -66.7, -54.3, -55.6, -47.5, -36.3, -22.4, 3.73% and inactive: 18.8%, 12.8%”.

Q: And the growth (25 µM, runs of 1992)?
A: The growth was “active: -50.9, -52.2, -51.9, -46.4, -57.7, -45.9, 2.66, -48.7 (2×), -43, -15.3, -62.8, -61.9, -56.6, -52.8, -51.2, -45.4, -57.2, -45.2, -32.7, -34.8, -47.5, -33.8, -28.2 (2×), -44.1, -55.2, -73.3, -33.1, -50.5, -5.2, -65.9, -81.5, -31.4, -38.2, -40.1, -54.5, -2.28, 9.38, -40.7, -38.1, 1.09, -54.2 (2×), -42.7, -46.5, -68.5, -29.3, -70.2, -53.8, -56.8, -68.1, -32, -55.7, -23.3, -45.7, -68.4, -63.2, -57.6, -45.5, -60.6, -40.8, -17.5, -18.6, -43.4, -50.6, -54.4, -80.4, -32.4, -25.9, -65.7, 6.56, 3.46, -15.5, -34.7, -38.3 (2×), -24.1, -71.1, -71.3, -51.8, -46.2, -10.3, -48.9, -36.7, -66.3, -47 (2×), -64.2, -61.8, -3.83, -56.7, -56.2, -65.5, -58, -63.3, -47.1, -59.6, -65.2, -63.1, -53.6, -18.1, -55.9, -67.8, -12.2, -48.5, -21.8, -61.2, -39.2, -66.9, -35.3, -29.8% and inactive: 11.6, 34.9, 23.2, 10, 11.9, 11.1, 33.5, 44.5%”.

Q: What about the growth (25 µM, runs of 1993) of the same compound?
A: Its growth is “active: -38.3, -39.8, -57.5, -69.9, -38.2, -59.1, -51.3, 3.9, -39.1, -21.8, 0.71, -63.4, -11.3, -74.2, -50.2, -35.8, -48.3, -56.3, -66, -60.7, -66.2, -49.5, -38.6, -65.6, -60.9, -26, -61.2, -61.1, -73.3, -56.7, 6.08, -64, -51.5, -63.3, -70.5, 1.13, -59.7, -53.4, -60, -19.2, -24.3, -37.2% and inactive: 20.9, 26, 12.4, 49.4, 47.3%”.

Q: What about the growth (25 µM, runs of 1994) of the same compound?
A: The growth was “active: -26.7, -56, -69.6, 1.81, -8.57, -42.7, -31.8, -50.4, -16.7, -35, -62.9, -5.98, -24.5, -48, -54, -7.56, -71.6, -34.8, -12.8, -17.4, -47.9, -45.8, 2.32, -47, -44.9, 5.22, -31.3, -59.8% and inactive: 99.5%, 21.4%, 22.2%”.

Q: And the growth (25 µM, runs of 1995)?
A: The growth was “active: -44.1, -34.5, -51.9, -44.4, -55.6, -42, -37.7, -62.2, -54, -42.9, -57.3, -55.4, -59.6 (2×), -53.7, -49, -17.5, -72.8, -8.17, -29.5, -53.9, -62, -30.9, -29.7, -14, -42.5, 8.42, -62.5, -62.7, -24.8, -47.7, -57, 1.96% and inactive: 18.1%, 14.9%”.

Q: What about the growth (25 µM, runs of 1996) of the same compound?
A: The growth was “active: 4.5, -10.8, -42.2, -26.5, -57.3, -59, -4.18, -50.7, -53.9, -51.2, -86.2, -53.3, -86.8, -22.9, -50.4, 1.53, -71.9, -42.3, -43.5, -50.8, -49.2, -72.7, -64.7, -26.3, -42.1, -45.5, -52.1, -8.64, -47.6, -40.6, -100, -54.4% and inactive: 47.5, 110, 10.3, 50.1, 34.5%”.

Q: And the growth (25 µM, runs of 1997)?
A: Its growth is “active: -50.3, -26.4, -52.8, -63.9, -34.1, -40.6, -25.1, -52.2, -53.1, -49.4, -19.5, -18.4, 0, -43.5, -10.8, -1.15, 5.91, -24.9, -6.61, -0.595, -41.8, -16.3, -22.8, -19.9% and inactive: 18.6, 12.8, 20.5, 30, 95.8%”.

Q: What about the growth (25 µM, runs of 1998) of the same compound?
A: The growth was “active: -24.3, -53, -75.3, -73.6, -37.7, -54.2, -33.4, -50.9, 5.95, -26.9, -58.9, -46.8, 8.79, -43.1, -40.6, -60.9, -47.1, -52.9, -42% and inactive: 47.9%”.

Q: And the growth (25 µM, runs of 1999)?
A: The growth was “active: -50.5, -34.1, -34, -50.2, -67.5, -49.5, -84.1, -60.8, 3.06, 1.4, -83.6, -25.6 (2×), 1.77, -79.3, 1.19, -81, -21.8%”.

Q: What about the growth (25 µM, runs of 2000) of the same compound?
A: The growth was “active: -70.2, -100, 3.13, -78.6%”.
